Test results from patent publication US20170202915A1 (TUFTS UNIVERSITY, published 2017).

Target: T1, podoplanin (human, UniProt Q86YL7 23-162, O-glycosylated with alpha2,3-sialyl glycans)
T1 construct: whole, on cells; Endogenous protein from LEC lysates in the pulldowns and co-immunoprecipitation; also called PDPN
T1 sequence (looked up): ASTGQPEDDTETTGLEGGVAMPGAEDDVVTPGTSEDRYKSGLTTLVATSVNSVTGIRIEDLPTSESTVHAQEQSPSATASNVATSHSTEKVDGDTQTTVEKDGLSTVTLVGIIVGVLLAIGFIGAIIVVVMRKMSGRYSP
Experiment: galectin-agarose pulldown from LEC lysates, anti-PDPN western blot (FIG. 7A)

B1: recombinant galectin-1 (other)
chain: not shown
notes: also called Gal-1
  binding result: no binding
